According to PubChem BioAssay AID1508642 (National Center for Advancing Translational Sciences (NCATS), 2021):
Screen size: about 43,000 compounds; about 200 (0.47%) were called active. Inconclusive results (about 12%) are left out. The call rests on the fitted dose curve; in most records, active means well fitted cell-killing curve with a large enough effect; inconclusive means small, poorly fitted or top-dose-only effect, or effect the other way; inactive means flat fitted curve, though single readings scatter. This is one part of the list.

Test: Cell viability qHTS assay in S16 Pmp22-F2sN cells; further: nearly all actives have a fitted effect of over 65% in size
Details: S16 Pmp22-F2sN Schwann cells (luciferase reporters placed in the Pmp22 gene) viability, CellTiter-Glo, 24 h; series mostly up to 57.5 µM; activity change, negative = cytotoxicity: at the top concentration
Procedure, shortened: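 S16 Schwann cells carrying the Pmp22-F2sN reporter, seeded in 1536-well format, were exposed to library compounds for 24 h at 37C. Viability was read as CellTiter-Glo luminescence after 15 min at room temperature.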
On the % scale 0 is the no-effect control and ±100 the full control effect.

Row | SMILES | activity change, negative = cytotoxicity
1 | COc1ccc(CCNC(=O)c2ccc(Cn3c(=O)c4ccccc4n(Cc4ccc(C)cc4)c3=O)cc2)cc1OC | inactive: 1.81%
2 | Cc1ccc2nc(CN3CCN(C(=O)Nc4ccc(C)c(F)c4)CC3)oc2c1 | inactive: -20.8%
3 | COCCCn1c(SCC(=O)Nc2ccccc2OC)nc2c(sc3ccccc32)c1=O | inactive: -15.8%
4 | CCOc1ccc(CCNC(=O)c2ccc(-c3nc(COc4ccc(C)cc4)c(C)o3)cc2)cc1 | inactive: -1.07%
5 | COc1ccc(NC(=O)CSc2nc(-c3ccc(F)cc3)c3cccc(C)c3n2)cc1 | inactive: -1.53%
6 | O=C(Nc1ccc(F)cc1)[C@@H](c1ccccc1)N1Cc2ccccc2C1=O | inactive: -1.98%
7 | CCCCN(C)CCCNC(=O)c1cc(-c2cccnc2)nc2ccccc12 | inactive: -11.6%
8 | COc1ccc(-c2oc3ncn4nc(COc5ccccc5C)nc4c3c2-c2ccc(OC)cc2)cc1 | inactive: 5.56%
9 | COC(=O)c1ccc(OC)c(Cn2c(=O)n(-c3cccc(Cl)c3)c(=O)c3c4c(sc32)CN(C(C)=O)CC4)c1 | inactive: 0.323%
10 | CCOC(=O)C1CCCN(C(=O)Cn2ncn3c(cc4sc(CC)cc43)c2=O)C1 (stereo not given) | inactive: 17.7%
11 | COc1ccccc1CCNC(=O)CCc1c(C)c2cc3c(C)c(C)oc3cc2oc1=O | inactive: -4.44%
12 | Cc1ccc(Cl)cc1NC(=O)CN1C(=O)COc2ccc(S(=O)(=O)N3CCCCCC3)cc21 | inactive: 7.71%
13 | COc1ccc(NC(=O)Cn2c(=O)n(-c3ccc(OC)cc3)c(=O)c3ccc(C(=O)NCc4ccc(C)cc4)cc32)cc1 | inactive: 7.65%
14 | COc1cc(C(=O)NCCc2csc3nc(-c4ccccc4C)nn23)cc(OC)c1OC | inactive: 4.19%
15 | Cc1cc(OCC(=O)N(Cc2ccc(N(C)C)cc2)C2CCS(=O)(=O)C2)cc(C)c1Cl (stereo not given) | inactive: -20.6%
16 | CC(C)c1ccc(NC(=O)CC2Oc3ccccc3NC2=O)cc1 (stereo not given) | inactive: -19%
17 | O=C(c1cccs1)c1cn(CCOc2ccccc2Cl)c2ccccc12 | inactive: 9.56%
18 | CCN(C(=O)C(Cc1ccccc1)NS(=O)(=O)c1cccc2nsnc12)c1ccccc1 (stereo not given) | inactive: -21.9%
19 | Cc1ccc(NC(=O)C(=O)NCC(c2ccc3c(c2)OCO3)N2CCN(c3ccccc3)CC2)cc1 (stereo not given) | inactive: 14.1%
20 | Cc1ccc(NC(=O)c2nnn(CC(=O)Nc3ccc(C)c(Cl)c3)c2N)c(C)c1 | inactive: 1.69%
21 | Cc1ccc(C(=O)n2nc(C)c(S(=O)(=O)N3CCOCC3)c2C)cc1C | inactive: 9.59%
22 | COc1ccccc1N1CCN(C(=O)CCS(=O)(=O)c2cc(Br)cc3c2N(C(C)=O)CC3)CC1 | inactive: 16.3%
23 | COc1ccc(Cn2c(CO)cnc2SCc2cccc(C)c2)cc1 | inactive: -6.4%
24 | Cc1nc(N2CCCC2)ncc1C(=O)N1CCN(c2ccccc2F)CC1 | inactive: -3.75%

Row | SMILES | activity change, negative = cytotoxicity
25 | O=C(COc1ccc(Cl)cc1)NCC(c1ccco1)S(=O)(=O)c1ccc(Cl)cc1 (stereo not given) | inactive: -23.3%
26 | COc1ccc(CNC(=O)c2cc3c(=O)n(C)c4ccccc4c3n2C)c(OC)c1 | inactive: 2.04%
27 | Cc1cc(C)c2oc(-c3ccc(C)c(NC(=O)/C=C/c4ccco4)c3)nc2c1 | inactive: 0.426%
28 | COCCNC(=O)CCCn1c(SCc2ccccc2Cl)nc2c(sc3ccccc32)c1=O | inactive: 24.4%
29 | COc1ccccc1C1CC(=O)N(c2cccc(C(F)(F)F)c2)C2=C1C(=O)OC2 (stereo not given) | inactive: -21.7%
30 | COC(=O)c1c(-c2ccccc2)c(-c2ccccc2)nn(C)c1=O | inactive: 15.9%
31 | COC(=O)c1ccc([C@H]2Nc3ccc(S(=O)(=O)Nc4cccc(C)c4)cc3[C@H]3C=CC[C@H]32)cc1 | inactive: 0.44%
32 | COc1ccccc1N1CCN(C(=O)c2cnc(N3CCOCC3)c3ccccc23)CC1 | inactive: -15.4%
33 | CCN1CCSc2ccc(C(=O)NCc3ccccc3Br)cc21 | inactive: -2.09%
34 | O=c1[nH]c(SCc2cccc(Cl)c2)nc2c1CCC2 | inactive: 6.24%
35 | Cc1cc(CN2CCN(c3ccc(F)cc3)CC2)cs1 | inactive: 7.57%
36 | Cc1cccc(N(CC(N)=O)C2SC(=O)N(Cc3cccc(C(=O)O)c3)C2=O)c1 (stereo not given) | inactive: 6.99%
37 | CCC(=O)Nc1nnc2n1CCS2 | inactive: 2.62%
38 | Cc1cc(Br)cc2c(C(=O)OCC(=O)c3ccccc3)cc(-c3ccccc3)nc12 | inactive: 4.8%
39 | Cc1c(-c2nnc(SCC(=O)Nc3ccc(Cl)cc3)o2)nnn1-c1ccc(F)cc1 | inactive: 7.19%
40 | CCN(Cc1ccccc1)S(=O)(=O)c1ccc(F)c(C(=O)Nc2cc(C(F)(F)F)ccc2Cl)c1 | inactive: -0.123%
41 | COc1ccc(N2C(=O)CSC23C(=O)N(CC(N)=O)c2ccccc23)cc1 (stereo not given) | inactive: 5.7%
42 | COC(=O)Cc1c(C)nc2nc(-c3ccc(C)cc3)[nH]n2c1=O | inactive: 0.23%
43 | CCOc1cccc2sc(NC(=O)CS(=O)(=O)c3ccc(C)cc3)nc12 | inactive: 25.5%
44 | COc1ccc(-n2c(=O)c3sc4ccccc4c3n(CC(=O)NC3CCCCC3)c2=O)cc1 | inactive: -8.4%
45 | CC(C)c1ccc(N2C(=O)N(Cc3ccccc3Cl)c3ccccc3S2(=O)=O)cc1 | inactive: 3.39%
46 | COc1cccc(NC(=O)CCNC(=O)Cn2cnc3ccccc3c2=O)c1 | inactive: 2.97%
47 | CCn1c2ccccc2c2cc(CN3CCN(Cc4cccc(Cl)c4)CC3)ccc21 | inactive: -11.6%
48 | COc1cc(C(CC(=O)NCc2ccccc2Cl)N2Cc3ccccc3C2=O)cc(OC)c1OC (stereo not given) | inactive: 2.58%

Row | SMILES | activity change, negative = cytotoxicity
49 | CCOc1ccccc1CNC(=O)c1ccc(-n2c(C)cc3c2CCC(C)C3)cc1 (stereo not given) | inactive: -25.3%
50 | COC(=O)c1ccccc1NC(=O)CCCn1nc(C)c2c(C)n(-c3ccccc3)nc2c1=O | inactive: -2.14%
51 | Cc1ccc(-c2onc(C)c2C)cc1S(=O)(=O)N1CCN(c2ccccc2F)CC1 | inactive: 6.52%
52 | COc1cc(OC)cc(-n2c(=O)c3sccc3n(Cc3ccc(F)cc3)c2=O)c1 | inactive: 19.3%
53 | COC(=O)c1sc(N2C(=O)c3oc4ccc(C)cc4c(=O)c3C2c2ccc(OC)cc2)nc1C (stereo not given) | inactive: -6.3%
54 | CCCOc1ccc(Oc2nc(NC)nc(N3CCOCC3)n2)nn1 | inactive: -9.57%
55 | Cc1cc(Cl)ccc1NC(=O)CSc1nc2c(c(=O)[nH]1)CCC2 | inactive: -12%
56 | Cc1ccc(NC(=O)C(=O)NCC(c2cccnc2)N2CCN(Cc3ccccc3)CC2)cc1Cl (stereo not given) | inactive: -14.2%
57 | Cc1ccc(C(=O)O)cc1NC(=O)c1nsc2ccccc12 | inactive: 8.25%
58 | Cc1ccc(Cl)cc1N1CCN(c2nc3ccccc3c3nc(-c4cccnc4)nn23)CC1 | inactive: 11.7%
59 | COc1ccc(CCNC(=O)CN2C(=O)COc3ccc(S(=O)(=O)N4CCCC4)cc32)cc1OC | inactive: 13.4%
60 | Cc1ccc(CNC(=O)c2cc(-c3ccc(C)c(C)c3)nc3ccccc23)cc1 | inactive: -18.2%
61 | CCCNC(=O)CCc1c(C)nc2nc(CNC(=O)c3ccccc3)nn2c1C | inactive: -0.369%
62 | CCOC(=O)c1ccc(NC(=O)CS(=O)(=O)Cc2nc(-c3ccc(C)cc3)oc2C)cc1 | inactive: -6.33%
63 | Cc1ccc(NC(=O)CN2C(=O)CC(c3ccco3)Sc3ccccc32)cc1Cl (stereo not given) | inactive: 22.5%
64 | COc1ccc(NC(=O)c2oc3ccccc3c2NC(=O)c2cc3ccccc3o2)c(OC)c1 | inactive: -0.792%
65 | Cc1ccc(F)cc1NC(=O)CSc1nc(-c2cccs2)cc(C(F)(F)F)n1 | inactive: -0.0291%
66 | CC(=O)NNc1ncnc2c1cnn2-c1ccccc1 | inactive: -0.628%
67 | Cc1ccccc1OCC(=O)Nc1c(C(=O)Nc2ccccc2F)oc2ccccc12 | inactive: 7.24%
68 | COC(=O)c1cnc(N2CCN(c3ccc(OC)cc3)CC2)c2ccccc12 | inactive: -1.79%
69 | Cc1ccccc1NS(=O)(=O)c1ccc2[nH]cc(C(=O)NCCc3ccccc3)c(=O)c2c1 | inactive: -1.55%
70 | COc1ccc(CNC(=O)Cn2c(=O)n3nc(-c4ccc(OC)cc4)nc3c3ccccc32)cc1 | inactive: 8.55%
71 | CCOc1ccc(C(=O)Nc2ccc3nc(Nc4cccc(C(F)(F)F)c4)cc(C)c3c2)cc1OCC | inactive: 18.1%
72 | COc1ccc(-c2c(C)nn3c(C(F)(F)F)cc(-c4ccc(C)cc4)nc23)cc1 | inactive: 4.25%

Row | SMILES | activity change, negative = cytotoxicity
73 | COc1ccc(-c2noc(CSc3nnc(C)n3-c3ccc(F)cc3)n2)cc1 | inactive: -9.98%
74 | COc1ccc(NC(=O)C(c2ccccc2)N(C)C(=O)/C=C\c2ccc3c(c2)OCO3)cc1 (stereo not given) | inactive: 0.0571%
75 | Cc1cccc(C2=Nc3ccccc3N=C(c3cc(Cl)ccc3O)C2)c1 | inactive: -1.78%
76 | Cc1oc2c(cc(NS(=O)(=O)c3ccc(C(C)C)cc3)c3ccccc32)c1C(=O)OCc1ccccc1 | inactive: -14.9%
77 | N#C/C(=C\c1ccc(OCc2ccc(Cl)cc2Cl)cc1)c1nc2ccccc2[nH]1 | inactive: 0.143%
78 | COc1ccc(NC(=O)c2cnn(-c3ccc(C)c(C)c3)c2C2CCNCC2)cc1OC | inactive: 0.727%
79 | CCOc1ccc(-n2c(C)nc3cc(C(=O)NC4CCCC4)ccc32)cc1 | inactive: 0.431%
80 | COc1ccc(OC)c(CNC(=O)c2cc3c(Cl)nc4ccccc4c3s2)c1 | inactive: 20.9%
81 | Cc1cccc(NC(=O)/C(C#N)=C/c2ccco2)c1 | inactive: -6.98%
82 | CCCNC(=O)Cn1nc(-c2ccc(OC)cc2)c2cnc3ccc(F)cc3c21 | inactive: 6.1%
83 | CCC1CCCCN1C(=O)c1c[nH]c2ccc(S(=O)(=O)Nc3cccc(OC)c3)cc2c1=O (stereo not given) | inactive: 2.17%
84 | Cc1cc(C)cc(-n2ccn(CC(=O)c3ccc(F)cc3)c(=O)c2=O)c1 | inactive: -1.34%
85 | COC(=O)c1scc(-c2ccc(C)cc2)c1S(=O)(=O)N1CCN(c2ccc(F)cc2)CC1 | inactive: 26.4%
86 | Nc1c(C(=O)NCc2cccs2)nnn1CC(=O)Nc1cccc(F)c1 | inactive: -5.08%
87 | O=C(O)c1ccc(NS(=O)(=O)c2ccc(Cl)c(C(=O)Nc3ccccc3)c2)cc1 | inactive: 7.28%
88 | Cc1ccc(N(C)S(=O)(=O)c2ccc3[nH]c(=O)ccc3c2)cc1 | inactive: 6.29%
89 | O=C(c1ccc(CS(=O)(=O)c2ccc(Br)cc2)o1)N1CCN(c2ccc(F)cc2)CC1 | inactive: 9.83%
90 | COC(=O)c1ccc(CSc2c(C(C)C)cnc3c2c(=O)n(C)c(=O)n3C)cc1 | inactive: 9.77%
91 | COc1cccc(CN2C(=O)C3(SCC(=O)N3c3ccc(C)c(Cl)c3)c3ccccc32)c1 (stereo not given) | inactive: -0.79%
92 | Cc1cc(C)n(C(C)CC(=O)Nc2ccc(Cl)cc2C)n1 (stereo not given) | inactive: -1.25%
93 | Cc1cccc(C(=O)n2nc(C)c(S(=O)(=O)N3CCOCC3)c2C)c1 | inactive: -1.88%
94 | CCCCC(=O)N1CCc2cc(OC)c(OC)cc2C1COc1ccc(C(=O)OCC)cc1 (stereo not given) | inactive: -19.9%
95 | CCOc1ccc(Sc2cc(C(=O)NCc3ccc(C)cc3)c3ccccc3n2)cc1 | inactive: -6.71%
